{"source": "a compilation of properties of binary mixtures (doi:10.1016/j.molliq.2017.11.011)", "assay": "xn = mol fraction of the nth substance listed", "settings": "101 kPa, x2 = 0", "note": "The densities may have been worked out from excess volumes."}
{"smiles": "O", "note": "+ CCCC[P+](CC)(CCCC)CCCC.CCOP(=O)([O-])OCC", "values": [{"measurement": "mass density", "setting": "333.15 K", "result": 983.2, "unit": "kg/m3"}, {"measurement": "mass density", "setting": "338.15 K", "result": 980.6, "unit": "kg/m3"}, {"measurement": "mass density", "setting": "343.15 K", "result": 977.8, "unit": "kg/m3"}, {"measurement": "mass density", "setting": "348.15 K", "result": 974.8, "unit": "kg/m3"}]}
